# In the supplement of paper PMC8728848:
# This is one part of the list.
# B1: CGL (Crenomytilus grayanus), H2FH31 (protein)
# chain: MTTFLIKHKASGKFLHPYGGSSNPANNTKLVLHSDIHERMYFQFDVVDERWGYIKHVASGKIVHPYGGQANPPNETNMVLHQDRHDRALFAMDFFNDNIMHKGGKYIHPKGGSPNPPNNTETVIHGDKHAAMEFIFVSPKNKDKRVLVYA
# Assays:
# Assay in all cases: glycan array binding signal (z-score within array); higher = stronger binding
# Details in all cases: glycan notation: IUPAC condensed, linker removed
# [1] = target: Fuc(a1-2)[GalNAc(b1-3)]Gal
# Procedure, shortened: (§1)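 Arrays were curated from the Consortium for Functional Glycomics database, 3228 in total, and kept only where the protein sequence was available. Binding is expressed as a within-array Z-score. This score was averaged across arrays of the same protein sequence at different concentrations or buffers and across linkers, and negative values can be read as non-binding.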
# Fuc(a1-3)GlcNAc = target: Fuc(a1-3)GlcNAc
# Procedure, shortened: as §1
# [2] = target: Fuc(a1-3)[Gal(b1-4)]Glc6S
# Procedure, shortened: as §1
# [3] = target: Fuc(a1-3)[Gal(b1-4)]GlcNAc
# Procedure, shortened: as §1
# [4] = target: Fuc(a1-3)[Gal(b1-4)]GlcNAc(b1-2)Man
# Procedure, shortened: as §1
# [5] = target: Fuc(a1-3)[Gal(b1-4)]GlcNAc(b1-2)Man(a1-3)[Fuc(a1-3)[Gal(b1-4)]GlcNAc(b1-2)Man(a1-6)]Man(b1-4)GlcNAc(b1-4)GlcNAc
# Procedure, shortened: as §1
# [6] = target: Fuc(a1-3)[Gal(b1-4)]GlcNAc(b1-2)Man(a1-3)[Fuc(a1-3)[Gal(b1-4)]GlcNAc(b1-2)Man(a1-6)]Man(b1-4)GlcNAc(b1-4)[Fuc(a1-6)]GlcNAc
# Procedure, shortened: as §1
# [7] = target: Fuc(a1-3)[Gal(b1-4)]GlcNAc(b1-3)Gal(b1-3)[Fuc(a1-4)]GlcNAc
# Procedure, shortened: as §1
# [8] = target: Fuc(a1-3)[Gal(b1-4)]GlcNAc(b1-3)Gal(b1-4)[Fuc(a1-3)]GlcNAc
# Procedure, shortened: as §1
# [9] = target: Fuc(a1-3)[Gal(b1-4)]GlcNAc(b1-3)Gal(b1-4)[Fuc(a1-3)]GlcNAc(b1-3)Gal(b1-4)[Fuc(a1-3)]GlcNAc
# Procedure, shortened: as §1
# [10] = target: Fuc(a1-3)[Gal(b1-4)]GlcNAc(b1-3)GalNAc
# Procedure, shortened: as §1
# [11] = target: Fuc(a1-3)[Gal(b1-4)]GlcNAc(b1-6)GalNAc
# Procedure, shortened: as §1
# [12] = target: Fuc(a1-3)[Gal(b1-4)]GlcNAc(b1-6)[Gal(b1-3)GlcNAc(b1-3)]Gal(b1-4)Glc
# Procedure, shortened: as §1
# [13] = target: Fuc(a1-3)[Gal(b1-4)]GlcNAc6S
# Procedure, shortened: as §1
# [14] = target: Fuc(a1-3)[Gal3S(b1-4)]Glc
# Procedure, shortened: as §1
# [15] = target: Fuc(a1-3)[Gal3S(b1-4)]GlcNAc
# Procedure, shortened: as §1
# [16] = target: Fuc(a1-3)[Gal3S(b1-4)]GlcNAc6S
# Procedure, shortened: as §1
# [17] = target: Fuc(a1-3)[GalNAc(b1-4)]GlcNAc
# Procedure, shortened: as §1
# [18] = target: Fuc(a1-3)[GalNAc(b1-4)]GlcNAc6S
# Procedure, shortened: as §1
# Fuc(a1-4)GlcNAc = target: Fuc(a1-4)GlcNAc
# Procedure, shortened: as §1
# Fuc(b1-3)GlcNAc = target: Fuc(b1-3)GlcNAc
# Procedure, shortened: as §1
# Gal(a1-2)Gal = target: Gal(a1-2)Gal
# Procedure, shortened: as §1
# Gal(a1-3)Gal = target: Gal(a1-3)Gal
# Procedure, shortened: as §1
# Gal(a1-3)Gal(b1-3)GlcNAc = target: Gal(a1-3)Gal(b1-3)GlcNAc
# Procedure, shortened: as §1
# [19] = target: Gal(a1-3)Gal(b1-3)GlcNAc(b1-2)Man
# Procedure, shortened: as §1
# [20] = target: Gal(a1-3)Gal(b1-3)GlcNAc(b1-2)Man(a1-3)[Gal(a1-3)Gal(b1-3)GlcNAc(b1-2)Man(a1-6)]Man(b1-4)GlcNAc(b1-4)GlcNAc
# Procedure, shortened: as §1
# [21] = target: Gal(a1-3)Gal(b1-3)GlcNAc(b1-3)GalNAc
# Procedure, shortened: as §1
# [22] = target: Gal(a1-3)Gal(b1-3)GlcNAc(b1-6)GalNAc
# Procedure, shortened: as §1
# [23] = target: Gal(a1-3)Gal(b1-3)[Fuc(a1-4)]GlcNAc(b1-2)Man(a1-3)[Gal(a1-3)Gal(b1-3)[Fuc(a1-4)]GlcNAc(b1-2)Man(a1-6)]Man(b1-4)GlcNAc(b1-4)GlcNAc
# Procedure, shortened: as §1
# Gal(a1-3)Gal(b1-4)Glc = target: Gal(a1-3)Gal(b1-4)Glc
# Procedure, shortened: as §1
# Gal(a1-3)Gal(b1-4)GlcNAc = target: Gal(a1-3)Gal(b1-4)GlcNAc
# Procedure, shortened: as §1
# [24] = target: Gal(a1-3)Gal(b1-4)GlcNAc(b1-2)Man
# Procedure, shortened: as §1
# [25] = target: Gal(a1-3)Gal(b1-4)GlcNAc(b1-2)Man(a1-3)[Gal(a1-3)Gal(b1-4)GlcNAc(b1-2)Man(a1-6)]Man(b1-4)GlcNAc(b1-4)GlcNAc
# Procedure, shortened: as §1
# [26] = target: Gal(a1-3)Gal(b1-4)GlcNAc(b1-3)GalNAc
# Procedure, shortened: as §1
# [27] = target: Gal(a1-3)Gal(b1-4)GlcNAc(b1-6)GalNAc
# Procedure, shortened: as §1
# [28] = target: Gal(a1-3)Gal(b1-4)[Fuc(a1-3)]GlcNAc
# Procedure, shortened: as §1
# [29] = target: Gal(a1-3)Gal(b1-4)[Fuc(a1-3)]GlcNAc(b1-2)Man(a1-3)[Gal(a1-3)Gal(b1-4)[Fuc(a1-3)]GlcNAc(b1-2)Man(a1-6)]Man(b1-4)GlcNAc(b1-4)GlcNAc
# Procedure, shortened: as §1
# Gal(a1-3)GalNAc = target: Gal(a1-3)GalNAc
# Procedure, shortened: as §1
# [30] = target: Gal(a1-3)[Gal(a1-4)]Gal(b1-4)GlcNAc
# Procedure, shortened: as §1
# [31] = target: Gal(a1-4)Gal(b1-3)GlcNAc(b1-2)Man(a1-3)[Gal(a1-4)Gal(b1-3)GlcNAc(b1-2)Man(a1-6)]Man(b1-4)GlcNAc(b1-4)GlcNAc
# Procedure, shortened: as §1
# Gal(a1-4)Gal(b1-4)Glc = target: Gal(a1-4)Gal(b1-4)Glc
# Procedure, shortened: as §1
# Gal(a1-4)Gal(b1-4)GlcNAc = target: Gal(a1-4)Gal(b1-4)GlcNAc
# Procedure, shortened: as §1
# [32] = target: Gal(a1-4)Gal(b1-4)GlcNAc(b1-2)Man(a1-3)[Gal(a1-4)Gal(b1-4)GlcNAc(b1-2)Man(a1-6)]Man(b1-4)GlcNAc(b1-4)GlcNAc
# Procedure, shortened: as §1
# [33] = target: Gal(a1-4)Gal(b1-4)GlcNAc(b1-3)Gal(b1-4)Glc
# Procedure, shortened: as §1
# Gal(a1-4)GlcNAc = target: Gal(a1-4)GlcNAc
# Procedure, shortened: as §1
binder,measurement,setting,value
B1,glycan array binding signal (z-score),[1],-0.291
same,glycan array binding signal (z-score),Fuc(a1-3)GlcNAc,-0.382
same,glycan array binding signal (z-score),[2],-0.309
same,glycan array binding signal (z-score),[3],-0.388
same,glycan array binding signal (z-score),[4],-0.467
same,glycan array binding signal (z-score),[5],-0.365
same,glycan array binding signal (z-score),[6],-0.358
same,glycan array binding signal (z-score),[7],-0.425
same,glycan array binding signal (z-score),[8],-0.404
same,glycan array binding signal (z-score),[9],-0.342
same,glycan array binding signal (z-score),[10],-0.385
same,glycan array binding signal (z-score),[11],-0.345
same,glycan array binding signal (z-score),[12],0.244
same,glycan array binding signal (z-score),[13],-0.324
same,glycan array binding signal (z-score),[14],-0.349
same,glycan array binding signal (z-score),[15],-0.367
same,glycan array binding signal (z-score),[16],-0.395
same,glycan array binding signal (z-score),[17],-0.244
same,glycan array binding signal (z-score),[18],0.103
same,glycan array binding signal (z-score),Fuc(a1-4)GlcNAc,-0.315
same,glycan array binding signal (z-score),Fuc(b1-3)GlcNAc,-0.334
same,glycan array binding signal (z-score),Gal(a1-2)Gal,0.752
same,glycan array binding signal (z-score),Gal(a1-3)Gal,1.29
same,glycan array binding signal (z-score),Gal(a1-3)Gal(b1-3)GlcNAc,1.03
same,glycan array binding signal (z-score),[19],2.38
same,glycan array binding signal (z-score),[20],0.398
same,glycan array binding signal (z-score),[21],1.15
same,glycan array binding signal (z-score),[22],1.22
same,glycan array binding signal (z-score),[23],0.178
same,glycan array binding signal (z-score),Gal(a1-3)Gal(b1-4)Glc,1.14
same,glycan array binding signal (z-score),Gal(a1-3)Gal(b1-4)GlcNAc,2.05
same,glycan array binding signal (z-score),[24],1.69
same,glycan array binding signal (z-score),[25],5.84
same,glycan array binding signal (z-score),[26],3.54
same,glycan array binding signal (z-score),[27],1.25
same,glycan array binding signal (z-score),[28],1.16
same,glycan array binding signal (z-score),[29],0.623
same,glycan array binding signal (z-score),Gal(a1-3)GalNAc,-0.193
same,glycan array binding signal (z-score),[30],3.32
same,glycan array binding signal (z-score),[31],4.07
same,glycan array binding signal (z-score),Gal(a1-4)Gal(b1-4)Glc,2.55
same,glycan array binding signal (z-score),Gal(a1-4)Gal(b1-4)GlcNAc,3.63
same,glycan array binding signal (z-score),[32],8.66
same,glycan array binding signal (z-score),[33],4.55
same,glycan array binding signal (z-score),Gal(a1-4)GlcNAc,0.842
